Measured values taken from patent US20200392236A1 (JUNO THERAPEUTICS, published 2020).

Target: T1, human BCMA (B-cell maturation antigen) on cells (human, UniProt Q02223 1-184)
T1 construct: whole, on cells; also called hBCMA; hBCMA/HEK293 cell line
T1 sequence (looked up): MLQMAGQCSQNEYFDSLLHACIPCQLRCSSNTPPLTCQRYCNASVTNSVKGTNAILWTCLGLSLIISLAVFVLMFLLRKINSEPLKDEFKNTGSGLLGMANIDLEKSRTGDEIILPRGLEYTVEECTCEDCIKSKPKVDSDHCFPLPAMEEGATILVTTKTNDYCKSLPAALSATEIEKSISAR
Experiment: flow cytometry, hBCMA-expressing HEK293 against parental HEK293 cells
Experimental: Binding of exemplary scFv clones to hBMCA-expressing HEK293 cells was assessed and binding was compared to parental HEK293 cells.

fold selective binding (hBCMA-expressing HEK293 over parental HEK293 cells): 4.2 fold
B1: BCMA-19 anti-BCMA scFv (scFv)
scFv: [about 100 residues not spelt out]DGGDVWGQGTTVTVSSGGGGSGGGGSGGGGSQAVLTQPASVSGSPGQSITISCTGTSSDVGDYNYVAWYQQHPGKDPKLMIFEVINRPSGVSDRFSGSKSGNTASLDISGLQPEDEADYYCISYSRGSTPYVIGTGTKVTVL
notes: VH-(G4S)3-VL scFv
